Measured values published in the RNAGym collection of RNA variant scans (doi:10.1101/gad.245936.114).
Variants at the background level are over-represented here.

B1: tRNA (parent)
chain: CUCUCGGUAGCCAAGUUGGUUUAAGGCGCAAGACUUUAAUUUAUCACUACGAAAUCUUGAGAUCGGGCGUUCGACUCGCCCCCGGGAGAUUUUUUCCUCGAGCAA

Variants of: B1
Experiment: nonsense suppression (GFP-seq) (ratio to wild type); higher = more function; SUP4oc tRNA, yeast GFP reporter sort-seq
Outline: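 Sorted GFP/RFP bins of yeast were each Illumina-sequenced with a phred ≥30 cutoff; the cells held a genome-integrated ochre-suppressor tRNA variant from a library with ~3% random mutations, a galactose-driven GFP ochre reporter, and RFP. Culture was in raffinose/galactose medium containing 80 mg/L adenine. Nonsense suppression, termed GFPSEQ, is the median GFP/RFP of the bins weighted by each variant's estimated cell share per bin, relative to the unmutated parent tRNA, for variants reaching ≥100 reads and ≥30 cells.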
In the case of C5U C34A G65A, the nonsense suppression is reported as ≤ 0.026. For C5U C34G, the nonsense suppression was ≤ 0.026. With C5U C34U U58G G61U the nonsense suppression was ≤ 0.026. For C5U C64G C80U, the nonsense suppression was ≤ 0.026. With C5U C68A C82G the nonsense suppression was ≤ 0.026. With C5U C68U the nonsense suppression was ≤ 0.026. In the case of C5U C72U, the nonsense suppression is reported as ≤ 0.026. For C5U C75U, the nonsense suppression was 0.0347. With C5U C77G the nonsense suppression was ≤ 0.026. For C5U C79U, the nonsense suppression was 0.0439. With C5U C80G the nonsense suppression was ≤ 0.026. In the case of C5U C83A, the nonsense suppression is reported as ≤ 0.026. With C5U G6C A62C the nonsense suppression was ≤ 0.026. For C5U G6C C29G C77A G88C, the nonsense suppression was ≤ 0.026. In the case of C5U G6U A62U, the nonsense suppression is reported as ≤ 0.026. With C5U G6U C12G A23U G88U the nonsense suppression was ≤ 0.026. In the case of C5U G6U G84C, the nonsense suppression is reported as ≤ 0.026. In the case of C5U G7A C11G, the nonsense suppression is reported as ≤ 0.026. In the case of C5U G7C G61C, the nonsense suppression is reported as ≤ 0.026. For C5U G7U, the nonsense suppression was ≤ 0.026. In the case of C5U G7U C34G U70A, the nonsense suppression is reported as ≤ 0.026. With C5U G7U G19C the nonsense suppression was ≤ 0.026. In the case of C5U G10A A13G G73A C75A G86C, the nonsense suppression is reported as ≤ 0.026. With C5U G10C A62G the nonsense suppression was ≤ 0.026. With C5U G10U U17A U22G A33U the nonsense suppression was ≤ 0.026. For C5U G15A G86C, the nonsense suppression was ≤ 0.026. In the case of C5U G15C A31G, the nonsense suppression is reported as ≤ 0.026. With C5U G15U G61U A89C the nonsense suppression was ≤ 0.026. With C5U G15U U57G G59U G88C the nonsense suppression was ≤ 0.026. In the case of C5U G18C A31G, the nonsense suppression is reported as ≤ 0.026. In the case of C5U G19A, the nonsense suppression is reported as ≤ 0.026. With C5U G19C U35A A89G the nonsense suppression was ≤ 0.026. With C5U G19C U35G G85A A87G the nonsense suppression was ≤ 0.026. With C5U G25A the nonsense suppression was ≤ 0.026. With C5U G25C the nonsense suppression was ≤ 0.026. For C5U G26C, the nonsense suppression was ≤ 0.026. With C5U G26C A31U C34A the nonsense suppression was ≤ 0.026. For C5U G32A U76C, the nonsense suppression was ≤ 0.026. With C5U G59A G66C the nonsense suppression was ≤ 0.026. For C5U G59C U63A C80A, the nonsense suppression was ≤ 0.026. For C5U G61A C64G G85C, the nonsense suppression was ≤ 0.026. With C5U G61A G86A the nonsense suppression was ≤ 0.026. In the case of C5U G69U U71A G85U, the nonsense suppression is reported as ≤ 0.026. For C5U G73C, the nonsense suppression was ≤ 0.026. For C5U G78C, the nonsense suppression was ≤ 0.026. In the case of C5U G86A, the nonsense suppression is reported as ≤ 0.026. For C5U G88C, the nonsense suppression was ≤ 0.026. For C5U U8A A9C G10C C12U G25U A31G C80A, the nonsense suppression was ≤ 0.026. With C5U U8A C81A the nonsense suppression was ≤ 0.026. For C5U U8G U17A U22A U55A U63C, the nonsense suppression was ≤ 0.026. In the case of C5U U16C C29A U55G, the nonsense suppression is reported as ≤ 0.026. With C5U U16C C64A G69U the nonsense suppression was ≤ 0.026. In the case of C5U U16G G59U G78C, the nonsense suppression is reported as ≤ 0.026. With C5U U16G U22C C56G C68G the nonsense suppression was ≤ 0.026. In the case of C5U U17A G73U, the nonsense suppression is reported as ≤ 0.026. In the case of C5U U17C, the nonsense suppression is reported as 0.0495. For C5U U17C A24G, the nonsense suppression was ≤ 0.026. In the case of C5U U17G G18U C56U G61C G78A, the nonsense suppression is reported as ≤ 0.026. For C5U U17G U22A A24G C29U G65C, the nonsense suppression was ≤ 0.026. With C5U U20A G65A C72G the nonsense suppression was ≤ 0.026. In the case of C5U U20A U21C, the nonsense suppression is reported as ≤ 0.026. With C5U U20C the nonsense suppression was ≤ 0.026. In the case of C5U U20G C29U A60C, the nonsense suppression is reported as ≤ 0.026. In the case of C5U U21G U35C C56A C80A, the nonsense suppression is reported as ≤ 0.026. For C5U U22A G26A U76C, the nonsense suppression was ≤ 0.026. With C5U U22A U58A G65C G67C G69C the nonsense suppression was ≤ 0.026. With C5U U22C C27U C34U the nonsense suppression was ≤ 0.026. For C5U U22C G88C, the nonsense suppression was ≤ 0.026. For C5U U35G, the nonsense suppression was ≤ 0.026. With C5U U35G C72A G85A the nonsense suppression was ≤ 0.026. For C5U U35G G67U, the nonsense suppression was ≤ 0.026. For C5U U55C G88A, the nonsense suppression was ≤ 0.026. In the case of C5U U55G C68U, the nonsense suppression is reported as ≤ 0.026. With C5U U55G G86U A89C the nonsense suppression was ≤ 0.026. For C5U U57A, the nonsense suppression was ≤ 0.026. With C5U U57G the nonsense suppression was ≤ 0.026. For C5U U58G, the nonsense suppression was ≤ 0.026. With C5U U63G C81G the nonsense suppression was ≤ 0.026. For C5U U70A, the nonsense suppression was ≤ 0.026. In the case of C5U U70C G84A, the nonsense suppression is reported as ≤ 0.026. In the case of C5U U70G, the nonsense suppression is reported as ≤ 0.026. With C5U U71A the nonsense suppression was ≤ 0.026. For C5U U71A C81G, the nonsense suppression was ≤ 0.026. With G6A A9C G18U the nonsense suppression was ≤ 0.026. In the case of G6A A9G C29G U70A, the nonsense suppression is reported as ≤ 0.026. In the case of G6A A9G G32A C34G G66A G85U, the nonsense suppression is reported as ≤ 0.026. For G6A A13G G18A C56A A62C G67C G73C, the nonsense suppression was ≤ 0.026. For G6A A13G U57C C68A, the nonsense suppression was ≤ 0.026. With G6A A14G A31G the nonsense suppression was ≤ 0.026. With G6A A14G A62U A74C G85C the nonsense suppression was ≤ 0.026. With G6A A14G C68U the nonsense suppression was ≤ 0.026. In the case of G6A A23C C81U, the nonsense suppression is reported as ≤ 0.026. With G6A A23C U57G U58G G86A the nonsense suppression was ≤ 0.026. With G6A A24G C27A C29G the nonsense suppression was ≤ 0.026. For G6A A30G, the nonsense suppression was ≤ 0.026. For G6A A30G G66C C75U, the nonsense suppression was ≤ 0.026. With G6A A30U the nonsense suppression was ≤ 0.026. With G6A A30U A33C G59U C72A U76C the nonsense suppression was ≤ 0.026. For G6A A31G G66A C80G, the nonsense suppression was ≤ 0.026. In the case of G6A A33U G59C U76A, the nonsense suppression is reported as ≤ 0.026. In the case of G6A A54U U57G A60G G86C, the nonsense suppression is reported as ≤ 0.026. In the case of G6A C11A A23G A62U, the nonsense suppression is reported as ≤ 0.026. In the case of G6A C11G A13C G26C, the nonsense suppression is reported as ≤ 0.026. In the case of G6A C12A A24G U55C, the nonsense suppression is reported as ≤ 0.026. In the case of G6A C12A G88C, the nonsense suppression is reported as ≤ 0.026. For G6A C12G U35A C79U A87G, the nonsense suppression was ≤ 0.026. With G6A C27A the nonsense suppression was ≤ 0.026. For G6A C27U A74G, the nonsense suppression was ≤ 0.026. For G6A C27U G88A, the nonsense suppression was ≤ 0.026. In the case of G6A C29A G69U, the nonsense suppression is reported as ≤ 0.026. In the case of G6A C29A U71A, the nonsense suppression is reported as ≤ 0.026. In the case of G6A C29U A31C U70A C81G A87G, the nonsense suppression is reported as ≤ 0.026. In the case of G6A C64A U71C A87G A89G, the nonsense suppression is reported as ≤ 0.026. With G6A C72G the nonsense suppression was ≤ 0.026. For G6A C81A, the nonsense suppression was ≤ 0.026. With G6A C81G the nonsense suppression was ≤ 0.026. For G6A G7U A54C, the nonsense suppression was ≤ 0.026. For G6A G10U U20A A24C, the nonsense suppression was ≤ 0.026. With G6A G15C A24C A31G C64U the nonsense suppression was ≤ 0.026. In the case of G6A G15C A62C, the nonsense suppression is reported as ≤ 0.026. For G6A G15C A89U, the nonsense suppression was ≤ 0.026. For G6A G15U A54U, the nonsense suppression was ≤ 0.026. For G6A G18C, the nonsense suppression was ≤ 0.026. In the case of G6A G18U G69A, the nonsense suppression is reported as ≤ 0.026. In the case of G6A G18U U21G C72U G78U G85A, the nonsense suppression is reported as ≤ 0.026. In the case of G6A G19A A23G A60C G73A G84C, the nonsense suppression is reported as ≤ 0.026. With G6A G19C the nonsense suppression was ≤ 0.026. In the case of G6A G19C G67C A87G, the nonsense suppression is reported as ≤ 0.026. In the case of G6A G19U C56U G61U A74U, the nonsense suppression is reported as ≤ 0.026. In the case of G6A G25C A87G G88A, the nonsense suppression is reported as ≤ 0.026. With G6A G26U A54G the nonsense suppression was ≤ 0.026. With G6A G28C the nonsense suppression was 0.0666. With G6A G32A G66A the nonsense suppression was ≤ 0.026. In the case of G6A G32U G65U G66C G67C C79U, the nonsense suppression is reported as ≤ 0.026. For G6A G59A, the nonsense suppression was ≤ 0.026. In the case of G6A G61C, the nonsense suppression is reported as ≤ 0.026. For G6A G61C C81U, the nonsense suppression was ≤ 0.026. G6A G78A showed a nonsense suppression of 0.037. With G6A G86C the nonsense suppression was ≤ 0.026. In the case of G6A U8G C12U A33C, the nonsense suppression is reported as ≤ 0.026. In the case of G6A U16C, the nonsense suppression is reported as ≤ 0.026. For G6A U16C G59C, the nonsense suppression was ≤ 0.026. With G6A U17A A24C the nonsense suppression was ≤ 0.026. For G6A U17A G19C A23C G66A G86U, the nonsense suppression was ≤ 0.026. For G6A U17C G59U C82A, the nonsense suppression was ≤ 0.026. With G6A U21A the nonsense suppression was ≤ 0.026. With G6A U21C the nonsense suppression was ≤ 0.026. With G6A U21C A30G G67C U71A G78A the nonsense suppression was ≤ 0.026. In the case of G6A U21G A54C U71A, the nonsense suppression is reported as ≤ 0.026. In the case of G6A U21G C64A G65A G67C, the nonsense suppression is reported as ≤ 0.026. With G6A U22C the nonsense suppression was ≤ 0.026. With G6A U22C A30C A89G the nonsense suppression was ≤ 0.026. With G6A U22C U57C G67A U70C the nonsense suppression was ≤ 0.026. In the case of G6A U35A, the nonsense suppression is reported as ≤ 0.026. With G6A U55A the nonsense suppression was ≤ 0.026. For G6A U55C U76C, the nonsense suppression was ≤ 0.026. With G6A U76A the nonsense suppression was ≤ 0.026. In the case of G6C A9G A33C C80U, the nonsense suppression is reported as ≤ 0.026. In the case of G6C A9G G25C C27A A30G C34G A87U, the nonsense suppression is reported as ≤ 0.026. In the case of G6C A9U G65U G85C, the nonsense suppression is reported as ≤ 0.026. For G6C A13C, the nonsense suppression was ≤ 0.026. With G6C A13C U22G A24G G59U G69C the nonsense suppression was ≤ 0.026. With G6C A13C U63C the nonsense suppression was ≤ 0.026. With G6C A14C the nonsense suppression was ≤ 0.026. For G6C A14C G26A, the nonsense suppression was ≤ 0.026. With G6C A14G C34A C79U the nonsense suppression was ≤ 0.026. With G6C A23U U35G the nonsense suppression was ≤ 0.026.
